In all, about 33,000 sequences were measured (“E-score (-0.5 to 0.5)”: median about -0.056, highest 2% from about 0.38 on). Some of the results follow.
Target: Stb4 (UniProt P50104)
Assay: PBM E-score (8-mer binding enrichment) (E-score (-0.5 to 0.5)); higher = stronger / more preferred TF binding; most listed sequences are background and not binding sites
Settings: protein concentration: 200 nM; construct: GST-DNA-binding domain
In short: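 Yeast transcription factors, full-length or as DNA-binding domains, were expressed with a GST tag using PURExpress in vitro transcription/translation. At about 100-200 nM they were applied to universal all-10-mer Agilent arrays, double-stranded by primer extension on fresh or once-stripped slides. Fluorescent anti-GST detected bound protein, and masliner normalised the scans. E-scores for ungapped eight-base words, pooled with reverse complements, came from the Universal PBM Analysis Suite.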

Sequence	PBM E-score
AGTTAAGC	0.0954
ACTAACAC	-0.0543
AGTCTCGA	-0.0187
CTTCTCCC	0.0168
GTCCAGCA	-0.237
CTGATACC	-0.104
CGGCGCTC	0.156
TCGCGTAA	0.0292
AGAAATCG	0.0992
GACTCATA	-0.0793
ATAATACG	0.144
ACATACTG	-0.0636
CACTCACG	-0.022
CAGGCCCG	0.172
AACGGAAA	0.393
CGGTGCTC	0.116
TCCGTAGA	0.147
TAAACCTA	-0.00181
CAGGCTTA	-0.107
CTGGGTAC	-0.105
AGTGGAAC	-0.0398
AGGTCACT	-0.249

Sequence	PBM E-score
ACGGTAGG	-0.0326
AGCGAACC	-0.00121
CGACCCCA	0.00659
CTCAACCA	-0.0445
ACGGTTGG	0.065
ACTAGGCT	-0.317
CACGCACC	0.00779
ACCAGTAC	-0.193
CTGTCTGC	-0.144
CCTTCTAG	-0.301
AGGCTAGA	-0.297
ATTCGCTA	-0.197
AAACCGTA	0.0401
AATCATCC	0.149
CATACGGC	0.0817
GATATAGA	0.193
AGGGCGCC	-0.105
CTCATCAA	-0.0454
ATGATCTA	-0.115
CGATAGCA	-0.00415
AATGAACG	-0.231
AATACGAG	-0.0662

Sequence	PBM E-score
AACCATCC	0.251
AACCTACC	0.179
CAGGCTCC	0.0435
AACAAAAT	-0.114
AGCTAGGG	-0.009
ACTCTCGA	-0.214
CAGCCCAC	-0.139
GCGGGGCC	0.146
ACAGTCCG	0.0488
ACCCTATG	-0.213
CGTATTAA	-0.105
TATAAAGA	-0.203
CCCGGCCC	0.316
ACTAAGTC	-0.0624
ACTATCGC	-0.192
AAAGCTGT	-0.123
GCCAATAA	0.0672
CTTCTTAC	0.0471
GCATGGCC	-0.0486
GCCTTCCC	-0.00928
TCGTACGA	-0.199
AACCACGG	0.185

Sequence	PBM E-score
ATATAATC	-0.0537
CCCAGCGG	-0.0104
ATTGGGCC	-0.03
CGGCATTA	0.344
AGGAGGAC	-0.214
CCGCTCTA	0.0787
CTGGGGGA	-0.109
CAATGGGG	-0.172
CGAACACC	0.189
CATAGTTC	-0.0247
GGTTTTGA	-0.0405
GGTTCAGA	0.014
AGTGCGAT	-0.188
TCTGCCCA	-0.116
CCGATACC	0.306
TCCAGAGA	-0.207
TCAATAAA	-0.142
CTTTTGGA	-0.0724
AGAGGACC	0.0474
CCCTCACA	-0.203

— the supplement of paper PMC3334620
